# Publication PMC4336329 (PLoS ONE, 2015)
# In all, about 310,000 compounds went through this assay and about 2,200 (0.71%) showed an effect of 50% or more. The effect is printed as a negative number. The list shows a part of the results.
# Target: human ether-à-go-go-related gene (hERG) potassium channel (human, UniProt Q12809)
# Assay: primary screen, population patch clamp on CHO cells stably expressing hERG
# Chain of human ether-à-go-go-related gene (hERG) potassium channel (Q12809 whole entry, looked up): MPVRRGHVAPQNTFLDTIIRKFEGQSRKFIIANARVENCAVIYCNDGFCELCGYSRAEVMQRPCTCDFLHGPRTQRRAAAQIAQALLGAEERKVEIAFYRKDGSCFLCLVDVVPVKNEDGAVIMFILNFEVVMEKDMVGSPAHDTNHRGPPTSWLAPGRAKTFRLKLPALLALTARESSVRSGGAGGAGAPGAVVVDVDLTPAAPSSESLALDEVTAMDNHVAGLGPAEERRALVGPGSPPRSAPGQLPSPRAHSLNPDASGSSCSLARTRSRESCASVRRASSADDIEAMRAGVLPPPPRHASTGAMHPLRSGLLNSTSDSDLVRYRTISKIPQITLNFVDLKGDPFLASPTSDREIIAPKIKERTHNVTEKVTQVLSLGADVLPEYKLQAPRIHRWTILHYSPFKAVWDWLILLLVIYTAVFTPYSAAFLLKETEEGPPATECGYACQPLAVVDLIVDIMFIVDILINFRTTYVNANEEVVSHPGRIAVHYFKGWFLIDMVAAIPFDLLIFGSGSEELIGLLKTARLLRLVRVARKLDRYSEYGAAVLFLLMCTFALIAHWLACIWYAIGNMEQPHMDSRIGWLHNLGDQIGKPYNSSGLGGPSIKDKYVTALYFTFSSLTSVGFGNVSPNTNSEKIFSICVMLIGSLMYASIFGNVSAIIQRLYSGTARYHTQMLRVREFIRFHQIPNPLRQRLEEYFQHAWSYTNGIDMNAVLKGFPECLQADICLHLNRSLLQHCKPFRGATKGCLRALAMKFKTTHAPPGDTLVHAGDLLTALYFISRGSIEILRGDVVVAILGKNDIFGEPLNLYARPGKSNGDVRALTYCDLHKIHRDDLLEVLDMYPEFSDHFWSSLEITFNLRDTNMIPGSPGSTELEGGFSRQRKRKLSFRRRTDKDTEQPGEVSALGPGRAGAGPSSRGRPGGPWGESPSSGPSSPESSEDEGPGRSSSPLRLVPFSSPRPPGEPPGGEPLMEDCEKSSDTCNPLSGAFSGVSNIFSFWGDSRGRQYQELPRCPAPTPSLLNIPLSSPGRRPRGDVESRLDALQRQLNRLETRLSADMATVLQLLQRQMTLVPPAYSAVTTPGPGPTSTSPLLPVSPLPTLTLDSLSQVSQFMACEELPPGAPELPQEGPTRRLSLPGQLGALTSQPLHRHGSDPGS
row,SMILES,"hERG current change (%, negative = inhibition) at 1uM [%]"
1,Cc1ccc(CNC(=O)/C=C/C(=O)O)cc1,-7.48
2,CCCN1CCN(C(=O)C2CCCN(c3ncnc4c3nc3n4CCCCC3)C2)CC1 (centres unmarked),0.737
3,COc1ccc(N2CCN(C(=O)C(C)(C)Oc3ccc(Cl)cc3)CC2)cc1,13.9
4,CN=C1S/C(=C\c2ccc(N3CCCC3)c(F)c2)C(=O)N1C,9.3
5,O=C(NCC(c1cccnc1)N1CCOCC1)c1cccc(Cl)c1 (centres unmarked),-0.744
6,Cc1cc(=O)oc2cc(NC(=O)COc3cccc(C(F)(F)F)c3)ccc12,11.3
7,Cc1cc(NC(=O)c2cc(-c3ccccn3)nc3c(Cl)cccc23)no1,-8.24
8,CON1C(=O)C(=O)N(OC)C2CCCCCC21 (centres unmarked),11.7
9,O=C(c1ccc(Cl)c(S(=O)(=O)N2CCCCC2)c1)N1CCN(c2ccccc2)CC1,3.46
10,CC1=C(n2ccnc2)CCC1=O,13.6
11,Cc1onc(-c2ccccc2)c1C(=O)N1CCC2(CC1)OCCO2,11.1
12,CCc1nc(SCc2nnc(-c3ccc(C)cc3)o2)c2c(C)c(C)sc2n1,16.4
13,CCCCNC(=O)C1CC(c2cccc(F)c2)=NO1 (centres unmarked),9.48
14,CCOC(=O)C1CCCc2c1[nH]c1ccc(Cl)cc21 (centres unmarked),19
15,O=C(COc1ccc2ccc(=O)oc2c1)Nc1nccs1,2.46
16,Cc1ccc(N(C(=O)C(F)(F)F)C(C(=O)NC2CCCCC2)c2ccncc2)cc1C (centres unmarked),15.4
17,CCOC(=O)C(C(=O)Nc1nccs1)C1CCCCC1 (centres unmarked),10.9
18,CC(C)[C@H](NS(=O)(=O)c1ccccc1)C(=O)OCC(=O)N1N=C(c2ccc(Cl)cc2)CC1c1ccco1 (some centres unmarked),2.31
19,Cc1cc(C(=O)OCC(=O)NCc2cccs2)c2ccccc2n1,-1.53
20,OC(CNCc1ccco1)Cn1c2ccc(Br)cc2c2cc(Br)ccc21 (centres unmarked),5.56
21,CC(C)c1nc2cc(C(=O)N(C)Cc3ccc(F)cc3)ccc2o1,10.7
22,CC(NC(=O)c1cc2c(=O)n(C)c3ccccc3c2n1C)c1ccc2c(c1)OCCO2 (centres unmarked),12.7
23,COc1cccc(/C=N/n2c(-c3cc(C)[nH]n3)n[nH]c2=S)c1,9.14

row,SMILES,"hERG current change (%, negative = inhibition) at 1uM [%]"
1,COC(=O)C1=C(c2ccc(S(C)(=O)=O)cc2)C[C@@H]2CC[C@H]1N2C(=O)NCCO,10.3
2,CCCSc1nnc(N2C(=O)CC(c3ccsc3)C3=C2CCCC3=O)s1 (centres unmarked),8.25
3,CCOC(=O)/C=C/c1ccccc1S(=O)(=O)NC(C)(C)C,-0.729
4,Cc1ccc(S(=O)(=O)N2CCN(C(=O)CCOc3cc(C)ccc3C)CC2)cc1,3.36
5,COc1ccc(NC(=O)Cn2nnc(C(=O)Nc3ccc(F)c(Cl)c3)c2N)cc1OC,5.08
6,N#CC1=C(SCc2ccccc2)NC2=C(C(=O)CCC2)C1c1ccc2c(c1)OCO2 (centres unmarked),8.23
7,O=C(Nc1nccs1)c1csc2c1CCCC2,10.7
8,CCOc1ccc(S(=O)(=O)N2CCCC(C(=O)NC3CCCC3)C2)cc1 (centres unmarked),-2.67
9,O=C(COC(=O)C1CCC1)NCCc1ccc(Cl)cc1Cl,16.5
10,COC(=O)CNC(=O)C1Cc2ccccc2CN1S(=O)(=O)c1ccc(F)cc1 (centres unmarked),8.86
11,Cn1c(=O)[nH]c(=O)c2c1nc(OC(=O)c1ccccc1)n2CC(O)COc1ccccc1 (centres unmarked),11.2
12,Cc1nc2ccccn2c1C(=O)NN=C1CCCC1,-1.75
13,Cc1cccc(N2CCN(C(=O)CS(=O)(=O)Cc3nc(-c4ccccc4F)oc3C)CC2C)c1 (centres unmarked),-2.75
14,O=C(c1cc2ccccc2o1)N1CCN(S(=O)(=O)c2c(F)cccc2F)CC1,8.28
15,CCN(CC)c1ccc(/C=C/[N+](=O)[O-])cc1,3.74
16,COc1cccc(OCc2cc(C(=O)N(Cc3nccn3C)C(C)C)no2)c1,12.8
17,C=C(C)COc1ccc(-c2ncncc2-c2ccc(Cl)cc2)c(O)c1,10.1
18,Cc1[nH]n(-c2ccccc2)c(=O)c1/C=N/O,0.784
19,CN(C)CCNC(=O)CNC(=S)N(CCCN1CCOCC1)Cc1cccs1,14.7
20,O=C(Nc1ccc(Cl)c(Cl)c1)N1CCSC1c1ccco1 (centres unmarked),11
21,O=C(COC(=O)c1cc([N+](=O)[O-])ccc1N1CCOCC1)Nc1cc(F)ccc1F,-5.03
22,O=C(NCCn1cc(SCc2ccc(F)cc2)c2ccccc21)c1ccccc1F,5.36
23,CCOC(=O)C1CCN(C(=O)c2cc(S(=O)(=O)N3CCCCC3)ccc2C)CC1,5.91

row,SMILES,"hERG current change (%, negative = inhibition) at 1uM [%]"
1,Cc1nc2ccccc2n1-c1nc(-c2ccco2)cc(C(F)(F)F)n1,6.45
2,O=C(OCc1cc(=O)n2c(n1)sc1ccccc12)c1cccc(O)c1,-2.02
3,COc1cccc(C(=O)NNC(=O)C(=O)Nc2ccc(C)c(Cl)c2)c1,9.18
4,COc1cc(NCCCCCCCN)c2ncccc2c1.O=C(O)CCC(=O)O,10.5
5,Cc1ccc(S(=O)(=O)c2nc(-c3ccccc3)oc2N2CCCC2)cc1,14.1
6,Cc1nc(-c2ccc(Cl)cc2)sc1C(=O)NNC(=O)C(C)C,13.2
7,CCNC(=O)c1c(O)c2ccccc2[nH]c1=O,5.46
8,CC1CC(C)CN(Cc2nc(N)nc(Nc3ccc4ccccc4c3)n2)C1 (centres unmarked),-61.1
9,COC(=O)c1ccc(=O)n(CC(=O)c2ccc(Cl)cc2)c1,6.36
10,CCC1CC(CSc2ncn[nH]2)OC1=O (centres unmarked),8.58
11,Clc1ccc(-c2cn3nc4c(nc3n2)CCCC4)cc1,8.51
12,CC12CCC(C(=O)Nc3nc4ccc(Br)cc4s3)(OC1=O)C2(C)C (centres unmarked),3.11
13,CC1(O)CC(=O)N(c2ccccc2)O1 (centres unmarked),-1.32
14,CCOc1cc(CNc2ccc(N3CCN(C(C)=O)CC3)cc2)cc(Br)c1OC,-0.298
15,CCC/C(O)=C1\C(=O)CCCC1=NCCc1c(C)[nH]c2ccc(OC)cc12,13.4
16,CC/C(O)=C1\C(=O)CC(c2ccccc2)CC1=NCCc1c(C)[nH]c2ccc(C)cc12 (centres unmarked),4.75
17,COc1ccc(C2C(C(=O)c3cccs3)=C(O)C(=O)N2c2cccc(C)n2)cc1 (centres unmarked),9.01
18,COc1cc(C(=O)NCC2CCCO2)ccc1OCc1ccccc1Cl (centres unmarked),-5.43
19,O=C1CC(N2CCN(c3ccc(F)cc3)CC2)C(=O)N1c1ccc2c(c1)OCO2 (centres unmarked),7.88
20,CC(=O)Nc1ccc(S(=O)(=O)Nc2ccc(Nc3ccccc3)cc2)cc1,16.4
21,COC(=O)[C@@H]1C[C@@]2(O)[C@@H](O)[C@@H](O)[C@@H](O)C[C@H]2N1CC1CCCCC1,13.5
22,O=C(Nc1cc([N+](=O)[O-])ccc1F)c1cccs1,11.3
23,Cn1c(SCc2ccc(Br)cc2)nc2ccccc2c1=O,13.4

row,SMILES,"hERG current change (%, negative = inhibition) at 1uM [%]"
1,CCOc1ccccc1NS(=O)(=O)c1cn(C)nc1C,12.2
2,COc1c2c(cc3c1C(CC(O)Cc1ccccc1)N(C)CC3)OCO2 (centres unmarked),-14
3,CCOC(=O)Cc1csc(NC(=O)/C=C/c2cccc(Br)c2)n1,4.88
4,CCCOc1ccc(C(CC(=O)O)NC(=O)c2sc3ccccc3c2Cl)cc1 (centres unmarked),1.55
5,O=C(OCC(=O)N1CCCC1)c1cc(Cl)ccc1[N+](=O)[O-],13.5
6,CN(C)c1ccc(/C=C(\Cl)c2nc3ccccc3s2)cc1,2.31
7,COc1ccc(/C=C/C(=O)OCc2cc(=O)n3c(n2)sc2ccccc23)cc1,15.8
8,CN(Cc1ccccc1)C(=O)c1cc(S(=O)(=O)N2CCOCC2)cn1C,-4.84
9,CCN(CC)S(=O)(=O)c1ccc2nc(CSc3nnnn3-c3ccc(O)cc3)[nH]c2c1,2.59
10,CC(=O)N(C)N(C)c1cc(C)nc(N)n1,11
11,COc1ccc(NC(=O)CN2CCN(S(=O)(=O)c3ccc(Cl)cc3)CC2)cc1Cl,5.61
12,CC(=O)Nc1ccc(S(=O)(=O)N2CCC(n3cnc4cc(F)ccc43)CC2)cc1,-26.4
13,CCNc1oc(-c2ccccc2F)nc1S(=O)(=O)c1ccccc1,10.7
14,COc1ccc(-c2c(-c3ccccc3OC)sc3ccccc23)cc1C=O,11.6
15,Nc1c(Cl)ncnc1NCC(O)CO (centres unmarked),16.2
16,CC(C)CC(NC(N)=O)C(=O)NCc1ccccc1Cl (centres unmarked),14.8
17,C=CCN(CC=C)CCCOc1ccc(C)cc1OC.O=C(O)C(=O)O,-8.58
18,CC(C)n1ncc2c(C(=O)Nc3ccc(S(C)(=O)=O)cc3)cc(C3CC3)nc21,33.4
19,CC(CCc1ccccc1)NC(=O)CN1CCN(c2ccc(O)cc2)CC1 (centres unmarked),-5.18
20,CC(=O)Cn1ncc(N(C)Cc2ccccc2)c(Cl)c1=O,11.6
